This is an account of results in PMC12820563.

The other results are listed elsewhere or left out. The list includes weakly bound sequences.

The target in this assay is T1, MBP-FoxP3dN (UniProt Q99JB6).
T1 sequence: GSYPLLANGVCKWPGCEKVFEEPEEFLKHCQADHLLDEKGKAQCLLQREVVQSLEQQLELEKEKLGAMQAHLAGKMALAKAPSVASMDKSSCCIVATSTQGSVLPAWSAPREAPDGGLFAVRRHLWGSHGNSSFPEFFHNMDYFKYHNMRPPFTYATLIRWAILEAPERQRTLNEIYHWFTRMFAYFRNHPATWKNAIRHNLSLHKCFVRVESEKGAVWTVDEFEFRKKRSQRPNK
Put plainly: PD-seq (MBP pull-down with sequencing). As to conditions: 20 mM Tris-HCl pH 7.5, 100 mM NaCl, 1.5 mM MgCl2, 0.4 uM protein, 0.1 uM dsDNA library, 30 min, room temperature, amylose pull-down; high values mean tight binding; double strand, one strand shown.
In the case of “GATGATTGTTCTCCCAGCTGATGAATTGCTTGACTCGAGTAAACAAATTTTCCTAATCTTTCTGTTCAAGCGCCATCTAC”, the binding signal (RPM ratio (pull-down/input)) was found to be 0.629. Turning to “GATGATTGTTCTCCCAGCTGATGAATTATCCCATTCGAGTAAACAAATTTTCCTAATCTTTCTGTTCAAGCGCCATCTAC”, the binding signal (RPM ratio (pull-down/input)) amounted to 0.337.

In the case of “GATGATTGTTCTCCCAGCTGATGAATTACCCCCATCGAGTAAACAAATTTTCCTAATCTTTCTGTTCAAGCGCCATCTAC”, the binding signal (RPM ratio (pull-down/input)) turned out to be 0.332. As to “GATGATTGTTCTCCCAGCTGATGAATTTGCTGTTTCGAGTAAACAAATTTTCCTAATCTTTCTGTTCAAGCGCCATCTAC”, the binding signal (RPM ratio (pull-down/input)) is 6.28. For the sequence “GATGATTGTTCTCCCAGCTGATGAATTTGGACCGTCGAGTAAACAAATTTTCCTAATCTTTCTGTTCAAGCGCCATCTAC”, the binding signal (RPM ratio (pull-down/input)) turned out to be 0.489. The result for “GATGATTGTTCTCCCAGCTGATGAATTAGGTTTGTCGAGTAAACAAATTTTCCTAATCTTTCTGTTCAAGCGCCATCTAC” reads 2.95; that for “GATGATTGTTCTCCCAGCTGATGAATTGATCTCTTCGAGTAAACAAATTTTCCTAATCTTTCTGTTCAAGCGCCATCTAC”, 0.317; that for “GATGATTGTTCTCCCAGCTGATGAATTGCAAGCATCGAGTAAACAAATTTTCCTAATCTTTCTGTTCAAGCGCCATCTAC”, 1.48.

In the case of “GATGATTGTTCTCCCAGCTGATGAATTGAAGCTGTCGAGTAAACAAATTTTCCTAATCTTTCTGTTCAAGCGCCATCTAC”, the binding signal (RPM ratio (pull-down/input)) worked out at 0.403. Turning to “GATGATTGTTCTCCCAGCTGATGAATTCTACAGGTCGAGTAAACAAATTTTCCTAATCTTTCTGTTCAAGCGCCATCTAC”, the binding signal (RPM ratio (pull-down/input)) was 0.222. In the case of “GATGATTGTTCTCCCAGCTGATGAATTGGGCACATCGAGTAAACAAATTTTCCTAATCTTTCTGTTCAAGCGCCATCTAC”, the binding signal (RPM ratio (pull-down/input)) stood at 0.783.

In the case of “GATGATTGTTCTCCCAGCTGATGAATTGTATCCGTCGAGTAAACAAATTTTCCTAATCTTTCTGTTCAAGCGCCATCTAC”, the binding signal (RPM ratio (pull-down/input)) came out at 0.998. The result for “GATGATTGTTCTCCCAGCTGATGAATTCCAACCATCGAGTAAACAAATTTTCCTAATCTTTCTGTTCAAGCGCCATCTAC” reads 0.315; that for “GATGATTGTTCTCCCAGCTGATGAATTAGACGGCTCGAGTAAACAAATTTTCCTAATCTTTCTGTTCAAGCGCCATCTAC”, 0.332; that for “GATGATTGTTCTCCCAGCTGATGAATTCCAACGTTCGAGTAAACAAATTTTCCTAATCTTTCTGTTCAAGCGCCATCTAC”, 0.354.

Take “GATGATTGTTCTCCCAGCTGATGAATTATGTCAATCGAGTAAACAAATTTTCCTAATCTTTCTGTTCAAGCGCCATCTAC”: the binding signal (RPM ratio (pull-down/input)) turned out to be 0.834.

For “GATGATTGTTCTCCCAGCTGATGAATTATTTGTTTCGAGTAAACAAATTTTCCTAATCTTTCTGTTCAAGCGCCATCTAC”, the binding signal (RPM ratio (pull-down/input)) came to 4.2. The result for “GATGATTGTTCTCCCAGCTGATGAATTTAAGTACTCGAGTAAACAAATTTTCCTAATCTTTCTGTTCAAGCGCCATCTAC” reads 0.809; that for “GATGATTGTTCTCCCAGCTGATGAATTTCGTAGTTCGAGTAAACAAATTTTCCTAATCTTTCTGTTCAAGCGCCATCTAC”, 0.915. Consider “GATGATTGTTCTCCCAGCTGATGAATTCGCCCAGTCGAGTAAACAAATTTTCCTAATCTTTCTGTTCAAGCGCCATCTAC”, for which the binding signal (RPM ratio (pull-down/input)) worked out at 0.243. In the case of “GATGATTGTTCTCCCAGCTGATGAATTAAGATGCTCGAGTAAACAAATTTTCCTAATCTTTCTGTTCAAGCGCCATCTAC”, the binding signal (RPM ratio (pull-down/input)) stood at 1.12.

“GATGATTGTTCTCCCAGCTGATGAATTGCGTCGGTCGAGTAAACAAATTTTCCTAATCTTTCTGTTCAAGCGCCATCTAC”: the binding signal (RPM ratio (pull-down/input)) worked out at 0.862. For the sequence “GATGATTGTTCTCCCAGCTGATGAATTCATTCGCTCGAGTAAACAAATTTTCCTAATCTTTCTGTTCAAGCGCCATCTAC”, the binding signal (RPM ratio (pull-down/input)) came out at 0.332. For “GATGATTGTTCTCCCAGCTGATGAATTGCGGCGGTCGAGTAAACAAATTTTCCTAATCTTTCTGTTCAAGCGCCATCTAC”, the binding signal (RPM ratio (pull-down/input)) is 0.612. Take “GATGATTGTTCTCCCAGCTGATGAATTGTCGGCTTCGAGTAAACAAATTTTCCTAATCTTTCTGTTCAAGCGCCATCTAC”: the binding signal (RPM ratio (pull-down/input)) is 0.343.

For “GATGATTGTTCTCCCAGCTGATGAATTGTTACTTTCGAGTAAACAAATTTTCCTAATCTTTCTGTTCAAGCGCCATCTAC”, the binding signal (RPM ratio (pull-down/input)) was found to be 0.923.

On to “GATGATTGTTCTCCCAGCTGATGAATTAAGCGGATCGAGTAAACAAATTTTCCTAATCTTTCTGTTCAAGCGCCATCTAC”, for which the binding signal (RPM ratio (pull-down/input)) worked out at 0.341. With “GATGATTGTTCTCCCAGCTGATGAATTCGGAGACTCGAGTAAACAAATTTTCCTAATCTTTCTGTTCAAGCGCCATCTAC”, the binding signal (RPM ratio (pull-down/input)) amounted to 0.479. Consider “GATGATTGTTCTCCCAGCTGATGAATTCACAATCTCGAGTAAACAAATTTTCCTAATCTTTCTGTTCAAGCGCCATCTAC”, for which the binding signal (RPM ratio (pull-down/input)) is 0.439. Consider “GATGATTGTTCTCCCAGCTGATGAATTAATATGGTCGAGTAAACAAATTTTCCTAATCTTTCTGTTCAAGCGCCATCTAC”, for which the binding signal (RPM ratio (pull-down/input)) stood at 0.648. With “GATGATTGTTCTCCCAGCTGATGAATTGACGTGGTCGAGTAAACAAATTTTCCTAATCTTTCTGTTCAAGCGCCATCTAC”, the binding signal (RPM ratio (pull-down/input)) was found to be 0.428.
